The full ranking holds about 33,000 sequences; the median of “E-score (-0.5 to 0.5)” is about -0.04, and the highest 2% start at about 0.36. The list shows a part of the results.
target: T1, Hmlalpha2 (UniProt P0CY09); test: PBM E-score (8-mer binding enrichment) (E-score (-0.5 to 0.5)); higher = stronger / more preferred TF binding; most listed sequences are background and not binding sites; details: protein concentration: 200 nM; construct: GST-full length
T1 sequence: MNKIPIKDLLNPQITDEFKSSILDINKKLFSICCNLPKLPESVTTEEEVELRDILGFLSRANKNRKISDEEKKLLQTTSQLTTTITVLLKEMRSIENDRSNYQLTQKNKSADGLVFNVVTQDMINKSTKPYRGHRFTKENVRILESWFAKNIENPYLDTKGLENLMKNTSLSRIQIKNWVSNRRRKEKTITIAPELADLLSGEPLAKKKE
In short: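 Masliner-normalised scans of fluorescent anti-GST signal were the basis for scoring. That signal came from GST-tagged yeast transcription factors applied at about 100-200 nM to double-stranded universal all-10-mer Agilent arrays on fresh or once-stripped slides. Each ungapped eight-base word, pooled with its reverse complement, received an E-score from the Universal PBM Analysis Suite.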

Row | Sequence | PBM E-score
1 | ATGCCTGC | -0.175
2 | CTACGTAA | 0.318
3 | ATGGAGGC | -0.263
4 | CATACAGA | 0.0154
5 | ACCAAGTG | -0.0583
6 | AGGGCGGA | -0.28
7 | AGGGACTC | -0.36
8 | CGTGTCCA | 0.163
9 | GATTAAAC | 0.155
10 | ATGTCGTA | 0.252
11 | AGAACCTG | -0.154
12 | TAACGATA | 0.16
13 | CCTGTCCC | -0.271
14 | ATATTTCC | -0.199
15 | AATGGTGT | 0.142
16 | TATGCCGA | 0.0144
17 | TGATCGAA | -0.00485
18 | GTCGGCGA | -0.0767
19 | CAGCTCAG | -0.175
20 | ATTCGAAG | -0.0614
21 | TAGAGCAA | -0.0684
22 | ATGGCATG | 0.215
23 | AGCTAAAA | -0.0141
24 | ACAGCCTC | -0.116
25 | CGCTCCAC | -0.283

Row | Sequence | PBM E-score
26 | CATTTTAG | 0.135
27 | TCTTTACA | 0.445
28 | GGTTCGTA | 0.00204
29 | CCCTTCAC | -0.195
30 | CTTTTGTC | -0.0784
31 | TATCACAA | 0.082
32 | CTGCCGTA | -0.193
33 | GCACCATA | -0.129
34 | GACCCTAC | -0.185
35 | GGTCGAAA | -0.166
36 | AAGGCTGT | -0.118
37 | AGGGCCTC | -0.259
38 | CGCGGTAA | 0.178
39 | ATAGCGAT | 0.0316
40 | GGTACTCA | -0.0579
41 | CTACGGAA | -0.0461
42 | AACTTGAC | 0.214
43 | GCGCCGAC | -0.0823
44 | GCATTAGA | 0.0569
45 | CCCTGCAC | -0.115
46 | ATAAATCA | 0.153
47 | AGTGGAGC | -0.0527
48 | TATGCCAA | 0.0267
49 | CCGGTGAA | -0.0442
50 | AGGTGGCA | -0.176

Row | Sequence | PBM E-score
51 | CGGAGCTA | -0.0643
52 | AGGGAGTC | -0.262
53 | AAGGTCGT | -0.0856
54 | AAAGCCTC | -0.206
55 | GGATACCA | -0.134
56 | GAGAGTAC | 0.035
57 | GATACCGA | -0.166
58 | TACCTCGA | -0.0242
59 | CAGTAACG | 0.0654
60 | AACACAGT | 0.304
61 | TCCCATAA | -0.0459
62 | CGTTCAAG | -0.00861
63 | GGGCTGGA | -0.295
64 | ACAGTGGC | -0.0921
65 | GCAGAGGA | -0.141
66 | CATCTACG | 0.161
67 | AAGAGATC | -0.247
68 | AAACTCGC | -0.0609
69 | AGCCCCAC | -0.271
70 | CCACTTAA | 0.0174
71 | CCGCTTCC | -0.0908
72 | ATTTACCA | 0.21
73 | ACAGTTGC | 0.0403
74 | AGGTGCTC | -0.322
75 | GGGGAGCA | -0.23

Row | Sequence | PBM E-score
76 | CTGCAAAG | -0.0914
77 | AACCGGAG | -0.0784
78 | GCCGCCAC | -0.303
79 | CGGTAATC | -0.204
80 | CTATCCTA | -0.147
81 | CTCCACAC | -0.099
82 | ATGGTTAG | 0.138
83 | AGCATCCA | -0.249
84 | GCAAATCC | 0.0405
85 | CAGCTAAG | -0.114
86 | ACAACGTG | 0.306
87 | CTGAAGTA | -0.0277
88 | GGCTAGAC | -0.193
89 | CGGCAACG | -0.0873
90 | CTGCTTAA | 0.00947
91 | CCAGTTAG | -0.127
92 | CTGCCCAG | -0.229
93 | CCACCGCC | -0.217
94 | GAGACTCA | -0.206
95 | ATTTGGCA | 0.00676
96 | CCATTGCA | 0.0939
97 | ACTTACTG | 0.00354
98 | CCGTAGCC | -0.307
99 | AGTTCTAC | 0.161
100 | ACCGACCG | -0.151

Row | Sequence | PBM E-score
101 | CTCGAACA | 0.112
102 | CAATTGAC | 0.0543
103 | ACTCATGG | -0.156
104 | AGGGGCTG | -0.249
105 | ATTTCTTC | -0.0697
106 | AGATGAAG | -0.156
107 | GGCAACCA | -0.113
108 | GCCTGTTA | 0.139
109 | ACCGGGAA | -0.0305
110 | GTGACACA | 0.142
111 | CTATTCAA | 0.0647
112 | AGGGGTAC | -0.121
113 | GGGAGTAA | 0.0108
114 | ACTCATTG | -0.155
115 | AGCTTGGC | -0.0948
116 | AGCACGCG | 0.216
117 | CAGGCCAC | -0.181
118 | AGTAGATG | 0.136
119 | CGGGCCCG | -0.122
120 | CCGCTAAG | -0.0291
121 | AGCTCCGA | -0.0303
122 | CAGACGCG | -0.0728
123 | GCCTTTGA | -0.126
124 | GTAGTTAA | 0.306
125 | ACTTAGGA | -0.0292

Row | Sequence | PBM E-score
126 | AGAGCTGG | -0.168
127 | GGGGCCAA | -0.283
128 | GACTGTAA | 0.171
129 | GGAGCCCA | -0.345
130 | TACGGCTA | -0.0923
131 | AGCCTTCC | -0.271
132 | ATCGGTTC | -0.00097
133 | CAGATGAG | -0.0215
134 | CTCATGTC | 0.295
135 | GCAGGTGA | -0.126
136 | AACGGCTT | -0.239
137 | AGCCATGG | -0.101
138 | TAAACCGA | 0.0421
139 | AGCCCTGC | -0.139
140 | GTTCGTCA | -0.108
141 | AGGGCCAT | -0.193
142 | CGTGGGGA | -0.244
143 | CCGATCAC | 0.0381
144 | CTAGGGCC | -0.182
145 | GCTAAGAC | -0.143
146 | CCGTTGGC | -0.236
147 | ATAAACGC | 0.185
148 | CAAGCTCG | -0.0355
149 | CTGTATCC | -0.105
150 | ATACCCTA | -0.0708

Row | Sequence | PBM E-score
151 | CGTTGCAA | 0.0442
152 | AATCTCTA | 0.0749
153 | CACCGCCG | -0.288
154 | CAATATGA | 0.0361
155 | AGTAGACC | -0.149
156 | CACCCCTA | -0.306
157 | CTGCCTGC | -0.252
158 | CCGGAGTC | -0.0726
159 | GCTATAGA | -0.15
160 | CGGACCTC | -0.309
161 | GATGCGGC | -0.204
162 | AGTTTAAC | 0.197
163 | CGCTTGGC | -0.0931
164 | CGAGACTA | 0.0402
165 | GCAGGGGA | -0.311
166 | CGGAACGC | -0.025
167 | AGCCTGGC | -0.207
168 | GTAGCCCA | -0.0543
169 | TCGATGAA | 0.102
170 | ATCATCAA | 0.00119
171 | ATTCTCTC | -0.127
172 | AAGTGAGA | -0.0616
173 | CGCTCGTA | -0.0486
174 | CTACAATA | 0.129
175 | TAACTGCA | 0.144

Row | Sequence | PBM E-score
176 | GCTACAAC | -0.0124
177 | TAGCGGGA | -0.231
178 | AGTCGCTG | -0.0137
179 | TAAGTGGA | 0.0716
180 | ATTCAACC | -0.0524
181 | ACAGTAAG | 0.064
182 | CCGGAAGC | -0.244
183 | ATCTCCAA | 0.00965
184 | CGGTCTCA | -0.175
185 | GTCCCTCA | -0.269
186 | AGTTAAAT | 0.117
187 | GTCAAGCA | -0.164
188 | GGGCATGA | -0.214
189 | CTAATGGA | -0.263
190 | ACGAGGCT | 0.134
191 | CTATATTC | -0.164
192 | CCCCGATC | -0.348
193 | TAGGGGGA | -0.271
194 | TTTCAAAA | 0.17
195 | AACTGGTA | -0.144
196 | TCAGCAGA | -0.128
197 | GTTCCGAA | -0.0934
198 | AGTACACT | 0.074
199 | AACGAGGT | 0.0369
200 | CCTCCGGA | -0.255

Row | Sequence | PBM E-score
201 | GTGTTTTA | 0.355
202 | ATTAACCA | 0.0177
203 | AACACCAG | 0.0881
204 | CCGAGCAG | -0.118
205 | AGGGGGAC | -0.355
206 | ACCGCTTC | -0.219
207 | CCAGGTGA | -0.00929
208 | ATGGTATG | 0.136
209 | GTATCTTA | 0.186
210 | CCAAATAA | 0.126
211 | ACATGACA | 0.412
212 | AAATCAAG | -0.0515
213 | ACCTAACC | -0.0215
214 | CCAATCTC | 0.00324
215 | TCGGCAGA | -0.0187
216 | ACCCAACC | -0.136
217 | AAGAACTT | 0.144
218 | AGATGGAG | -0.0217
219 | CTTGATGC | -0.07

Source: the supplement of paper PMC3334620
